According to the RNAGym collection of RNA variant scans (doi:10.1093/nar/gkz1192):
The source gives no read counts; variants with many changes may rest on few reads.

B1: CPEB3 Ribozyme (parent)
chain: UAACAGGGGGCCACAGCAGAAGCGUUCACGUCGCAGCCCCUGUCAGAUUCUGGUGAAUCUGCGAAUUCUGCUGUAUAUCUC

Variants of: B1
Experiment: self-cleavage, relative activity (ratio to wild type); higher = more cleavage; in vitro, sequencing
Procedure, shortened: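 For each CPEB3 ribozyme variant, relative activity is its cleaved/total read fraction divided by the unmutated ribozyme's. Barcoded error-prone PCR libraries were transcribed by T7 RNA polymerase (5 hours, 37°C) and held in DNase I for 15 min before an EDTA stop, with cleavage occurring throughout. Template-switching reverse transcription and Illumina sequencing were used to read the RNAs. A 5-read minimum applied, and results are the mean of three batches.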

Variant	self-cleavage
A13U U26C A57U	0.11
A13U U26C A77C U78A	0.7
A13U U26C C27U A45G U66C A77G	0.02
A13U U26C C27U A45U C59U U67A U80A	0.04
A13U U26C C29U U41C A45G U74C	0.16
A13U U26C C32U	0.14
A13U U26C C38U A56G	0.21
A13U U26C G30A A64U U74A	0.13
A13U U26C U31C	0.18
A13U U26C U41A U54C A56U	0.15
A13U U26C U41C G42U	0.22
A13U U26C U48C	0.51
A13U U26C U51C	0.45
A13U U26C U51C U60C	0.23
A13U U26C U54A U78C	0.4
A13U U26C U58G	0.53
A13U U26C U60A U72C C79A	0.06
A13U U26C U76C	0.62
A13U U26G A64G U69A G70C U72A	0.14
A13U U26G U80A	0.57
A13U U31A A35G	1.19

Variant	self-cleavage
A13U U31A A35G G36A U78C	0.28
A13U U31A A45C	0.16
A13U U31A A56G	0.2
A13U U31A A64U U74C A75G	0.11
A13U U31A A65U U66C	0.09
A13U U31A C32U A35C A64G	0.19
A13U U31A C37U	0.47
A13U U31A U41A A45U A57G U72A U78C	0.3
A13U U31A U43G U58C	0.17
A13U U31A U49A	0.62
A13U U31A U49A U66G	0.08
A13U U31A U49A U78A	0.41
A13U U31A U51A A57U	0.12
A13U U31A U51C A77U	0.18
A13U U31A U54C	0.88
A13U U31A U72A	0.41
A13U U31A U72C	0.22
A13U U31C A35G U80C	1.22
A13U U31C A35U U60G	0.09
A13U U31C A45G A77G	0.81
A13U U31C A45G U69G	0.13

Variant	self-cleavage
A13U U31C A56U U60C A64G	0.11
A13U U31C A75U	0.68
A13U U31C C32A U78C	0.17
A13U U31C C32U U54C C81U	0
A13U U31C C79A	1.06
A13U U31C G63A A65G	0.47
A13U U31C U41A U49C U58C	0.07
A13U U31C U43C U51A A77U	0.71
A13U U31C U51C	0.72
A13U U31C U54A A75G	1.15
A13U U31C U74C	1.23
A13U U31G A35G C37A	0.35
A13U U31G A35U A47G U51A U67C U72C	0.12
A13U U31G A47G U49A	0.19
A13U U41A A57G U72C	0.23
A13U U41A A64G A65U U74C	0.13
A13U U41A C44U A65G	0.14
A13U U41A U43A U67G C81U	0.12
A13U U41A U48A	0.2
A13U U41A U48C U80C	0.07
A13U U41A U49C A65G U80G	0.04

Variant	self-cleavage
A13U U41A U49C U58C	0.39
A13U U41A U54A U67C	0.11
A13U U41A U54C A64G U78C	0.14
A13U U41A U58C C62U	0.31
A13U U41A U66C U76G	0.1
A13U U41C A45G A47G U72C U80C	0.8
A13U U41C A47U U69C U80A	0.13
A13U U41C A56G	1.02
A13U U41C A57G U78A	1.19
A13U U41C A65G	0.81
A13U U41C A75G A77U	1.2
A13U U41C G61C A75U U80A	0.48
A13U U41C U43C A47U U51C U66C	0.14
A13U U41C U43C U48C A65G	0.11
A13U U41C U43C U54A U60C A64C	0.11
A13U U41C U49A U69C	0.39
A13U U41C U54C	1.19
A13U U41C U54C U67A U72A U76A	0.29
A13U U41C U54C U72A	0.47
A13U U41C U60C U69A	0.26
A13U U43A A45G	0.95
